Laboratory results from patent US4579841A, “Dipeptide derivatives having opiate activity” (University Patents, Inc., priority 1981, dated 1986).
Not every detail of the peptide structures is certain; ends, links or a residue may be inferred.

Tests used:
[1] = test system: tail-flick (analgesia) in the mouse; experiment: In vivo analgesic tail-flick assay following intracerebroventricular injection (Chipkin, et al.); details: for Duration / Latency: intracerebroventricular; for Duration: return to base latency; for Latency: time necessary for tailflick 10 min after injection
[2] = test system: electrically stimulated guinea pig ileum; experiment: In vitro assay on the electrically stimulated guinea pig ileum (Chipkin, et al.); assay type: cell-based; details: potency relative to methionine-enkephalin=100
Procedure: Peptides were assayed for biological activity in vitro on the electrically stimulated guinea pig ileum, using the procedure described by Chipkin, et al. (Life Sciences 28:1517-1522, 1981). All potencies of the peptides in this assay are reported relative to the potency of methionine-enkephalin=100. Analgesic activity of the peptides in vivo was assayed by the tail-flick method following intracerebroventricular injection, as described in the Chipkin, et al., reference. The standard for this assay was Tyr-D-Ala-Gly-Phe-Met-amide.
*(Assay on the stimulated guinea pig ileum according to Chipkin, et al.;
standard peptide is methionineenkephalin.)

CSCC[C@H](NC(=O)[C@H](Cc1ccccc1)NC(=O)CNC(=O)[C@@H](C)NC(=O)[C@@H](N)Cc1ccc(O)cc1)C(N)=O [Tyr--D-Ala--Gly--Phe--Met--NH2, Tyr-D-Ala-Gly-Phe-Met-amide, reference compound]
Duration ([1]; dose 1 μg/mouse): 90 min | Latency ([1]; dose 1 μg/mouse): 4.6 s | Duration ([1]; dose 10 μg/mouse): 150 min | Latency ([1]; dose 10 μg/mouse, cutoff 6.0): ≥ 6.0 s

C[C@@H](NC(=O)[C@@H](N)Cc1ccc(O)cc1)C(=O)NCc1ccccc1 [Tyr--D-Ala--NH--CH2 --C6 H5]
Relate In Vitro Potency [2]: 8

C[C@@H](NC(=O)[C@@H](N)Cc1ccc(O)cc1)C(=O)NCCCCc1ccccc1 [Tyr--D-Ala--NH--CH2 CH2 CH2 CH2 --C6 H5]
Relate In Vitro Potency [2]: 13

C[C@@H](NC(=O)[C@@H](N)Cc1ccc(O)cc1)C(=O)NCCc1ccccc1 [Tyr--D-Ala--NH--CH2 CH2 --C6 H5]
Relate In Vitro Potency [2]: 6

C[C@@H](NC(=O)[C@@H](N)Cc1ccc(O)cc1)C(=O)NCCCc1ccccc1 [Tyr--D-Ala--NH--CH2 CH2 CH2 --C6 H5, Tyr-D-Ala-phenylpropylamide]
Relate In Vitro Potency [2]: 77 | degree of analgesia in the mouse ([1]; compared with Tyr-D-Ala-Gly-Phe-Met-amide): higher degree of analgesia in the mouse than does Tyr-D-Ala-Gly-Phe-Met-amide | Duration ([1]; dose 0.1 μg/mouse): 30 min | Latency ([1]; dose 0.1 μg/mouse): 3.9 s | Duration ([1]; dose 0.6 μg/mouse): 60 min | Latency ([1]; dose 0.6 μg/mouse): 5.2 s | Duration ([1]; dose 6 μg/mouse): 150 min | Latency ([1]; dose 6 μg/mouse, cutoff 6.0): ≥ 6.0 s

CSCC[C@H](NC(=O)[C@H](Cc1ccccc1)NC(=O)CNC(=O)CNC(=O)[C@@H](N)Cc1ccc(O)cc1)C(=O)O [Tyr--Gly--Gly--Phe--Met, Methionine-enkephalin, reference compound]
Relate In Vitro Potency [2]: 100
